Like-named read-outs stand apart in the source and are kept apart here. Results are given in words; binding and its absence hold for the method and conditions named. In cells and extracts the contact can be indirect. Some binding calls cover weakened binding; strength is not graded here.
Columns and labels:
TFEB-EGFP [1] = molecular target: TFEB-EGFP (UniProt P19484); experiment: co-IP; HEK293T cells co-transfected; lysates (20 mM Tris-Cl pH 7.4, 150 mM NaCl, 1% Triton X-100) immunoprecipitated with anti-GFP antibody overnight at 4 °C, Protein G or A/G beads, immunoblot; in some panels with co-expressed VSVG-LRP6 or Flag-TNKS1, or treatment with XAV939 or MG132
Flag-TFEB = Flag-TFEB (UniProt P19484); experiment: co-IP; HEK293T cells expressing Flag-TFEB and Myc-Axin1, treated with Wnt3a-CM; immunoprecipitation with anti-Flag antibody, immunoblot
TFEB V65D/G67V/E68A-EGFP = TFEB V65D/G67V/E68A-EGFP (UniProt P19484); experiment: co-IP; HEK293T cells co-transfected; lysates (20 mM Tris-Cl pH 7.4, 150 mM NaCl, 1% Triton X-100) immunoprecipitated with anti-GFP antibody overnight at 4 °C, Protein G or A/G beads, immunoblot; in some panels with co-expressed VSVG-LRP6 or Flag-TNKS1, or treatment with XAV939 or MG132
TFEB-EGFP [2] = molecular target: TFEB-EGFP (UniProt P19484); experiment: as above; remark: listed apart in the source

Protein sequences, listed by entry. Tags and fused reporters are not part of them. Lines headed by an entry give the natural chain unless they say otherwise; changes in a name come on top.
UniProt P19484: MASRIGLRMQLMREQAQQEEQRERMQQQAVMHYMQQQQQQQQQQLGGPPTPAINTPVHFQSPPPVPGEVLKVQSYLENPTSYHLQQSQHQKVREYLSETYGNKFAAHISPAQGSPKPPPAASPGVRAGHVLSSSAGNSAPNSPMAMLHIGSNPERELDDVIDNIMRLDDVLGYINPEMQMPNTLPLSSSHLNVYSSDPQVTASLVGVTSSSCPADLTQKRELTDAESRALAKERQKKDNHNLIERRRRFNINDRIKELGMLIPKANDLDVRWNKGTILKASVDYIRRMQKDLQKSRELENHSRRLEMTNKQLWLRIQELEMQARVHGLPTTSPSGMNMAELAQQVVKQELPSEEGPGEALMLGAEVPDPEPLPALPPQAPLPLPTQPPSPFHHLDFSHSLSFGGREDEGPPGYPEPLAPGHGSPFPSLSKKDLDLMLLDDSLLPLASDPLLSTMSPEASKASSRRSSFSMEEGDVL
UniProt P36402: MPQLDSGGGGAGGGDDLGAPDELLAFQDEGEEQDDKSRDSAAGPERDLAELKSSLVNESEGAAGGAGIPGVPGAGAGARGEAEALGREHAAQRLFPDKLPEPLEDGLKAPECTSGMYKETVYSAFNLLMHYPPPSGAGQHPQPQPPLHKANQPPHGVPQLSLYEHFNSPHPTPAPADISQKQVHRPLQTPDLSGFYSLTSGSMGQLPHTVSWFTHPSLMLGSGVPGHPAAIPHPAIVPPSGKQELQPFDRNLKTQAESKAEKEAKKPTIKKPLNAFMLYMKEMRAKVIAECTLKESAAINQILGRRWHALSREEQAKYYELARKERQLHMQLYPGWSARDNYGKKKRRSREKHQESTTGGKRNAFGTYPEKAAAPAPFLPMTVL
UniProt O15169: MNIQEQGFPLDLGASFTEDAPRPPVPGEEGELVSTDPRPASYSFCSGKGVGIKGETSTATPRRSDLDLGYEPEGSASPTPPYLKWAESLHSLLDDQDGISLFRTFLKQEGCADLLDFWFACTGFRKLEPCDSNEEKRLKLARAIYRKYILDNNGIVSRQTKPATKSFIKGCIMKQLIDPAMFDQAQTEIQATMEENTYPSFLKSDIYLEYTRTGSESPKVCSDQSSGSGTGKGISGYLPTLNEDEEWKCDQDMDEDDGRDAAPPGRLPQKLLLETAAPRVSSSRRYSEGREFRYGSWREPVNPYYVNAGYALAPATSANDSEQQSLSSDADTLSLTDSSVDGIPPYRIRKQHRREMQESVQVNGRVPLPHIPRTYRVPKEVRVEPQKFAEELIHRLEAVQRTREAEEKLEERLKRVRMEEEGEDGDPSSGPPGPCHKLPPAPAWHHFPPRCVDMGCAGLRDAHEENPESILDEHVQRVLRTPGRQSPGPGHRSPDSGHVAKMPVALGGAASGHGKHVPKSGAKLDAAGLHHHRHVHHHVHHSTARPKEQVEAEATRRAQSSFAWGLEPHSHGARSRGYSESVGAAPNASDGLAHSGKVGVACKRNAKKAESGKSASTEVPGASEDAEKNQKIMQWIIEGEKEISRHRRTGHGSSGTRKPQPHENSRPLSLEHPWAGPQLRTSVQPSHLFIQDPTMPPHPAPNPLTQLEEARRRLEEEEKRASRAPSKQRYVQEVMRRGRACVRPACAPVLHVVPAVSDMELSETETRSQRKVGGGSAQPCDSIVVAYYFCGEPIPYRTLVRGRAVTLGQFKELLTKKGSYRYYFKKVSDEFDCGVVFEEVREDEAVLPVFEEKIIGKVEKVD
UniProt Q9UJU2: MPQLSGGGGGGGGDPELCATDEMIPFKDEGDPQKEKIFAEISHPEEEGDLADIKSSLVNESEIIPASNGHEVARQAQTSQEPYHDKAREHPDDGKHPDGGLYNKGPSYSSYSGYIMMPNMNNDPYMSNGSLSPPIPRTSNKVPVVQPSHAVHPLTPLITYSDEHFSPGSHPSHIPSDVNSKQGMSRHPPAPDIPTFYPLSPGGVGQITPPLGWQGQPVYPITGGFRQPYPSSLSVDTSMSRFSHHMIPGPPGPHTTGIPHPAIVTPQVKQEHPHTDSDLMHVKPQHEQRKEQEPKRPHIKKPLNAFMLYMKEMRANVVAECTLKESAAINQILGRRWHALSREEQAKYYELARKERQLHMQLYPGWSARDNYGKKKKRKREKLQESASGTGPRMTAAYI
UniProt O95271: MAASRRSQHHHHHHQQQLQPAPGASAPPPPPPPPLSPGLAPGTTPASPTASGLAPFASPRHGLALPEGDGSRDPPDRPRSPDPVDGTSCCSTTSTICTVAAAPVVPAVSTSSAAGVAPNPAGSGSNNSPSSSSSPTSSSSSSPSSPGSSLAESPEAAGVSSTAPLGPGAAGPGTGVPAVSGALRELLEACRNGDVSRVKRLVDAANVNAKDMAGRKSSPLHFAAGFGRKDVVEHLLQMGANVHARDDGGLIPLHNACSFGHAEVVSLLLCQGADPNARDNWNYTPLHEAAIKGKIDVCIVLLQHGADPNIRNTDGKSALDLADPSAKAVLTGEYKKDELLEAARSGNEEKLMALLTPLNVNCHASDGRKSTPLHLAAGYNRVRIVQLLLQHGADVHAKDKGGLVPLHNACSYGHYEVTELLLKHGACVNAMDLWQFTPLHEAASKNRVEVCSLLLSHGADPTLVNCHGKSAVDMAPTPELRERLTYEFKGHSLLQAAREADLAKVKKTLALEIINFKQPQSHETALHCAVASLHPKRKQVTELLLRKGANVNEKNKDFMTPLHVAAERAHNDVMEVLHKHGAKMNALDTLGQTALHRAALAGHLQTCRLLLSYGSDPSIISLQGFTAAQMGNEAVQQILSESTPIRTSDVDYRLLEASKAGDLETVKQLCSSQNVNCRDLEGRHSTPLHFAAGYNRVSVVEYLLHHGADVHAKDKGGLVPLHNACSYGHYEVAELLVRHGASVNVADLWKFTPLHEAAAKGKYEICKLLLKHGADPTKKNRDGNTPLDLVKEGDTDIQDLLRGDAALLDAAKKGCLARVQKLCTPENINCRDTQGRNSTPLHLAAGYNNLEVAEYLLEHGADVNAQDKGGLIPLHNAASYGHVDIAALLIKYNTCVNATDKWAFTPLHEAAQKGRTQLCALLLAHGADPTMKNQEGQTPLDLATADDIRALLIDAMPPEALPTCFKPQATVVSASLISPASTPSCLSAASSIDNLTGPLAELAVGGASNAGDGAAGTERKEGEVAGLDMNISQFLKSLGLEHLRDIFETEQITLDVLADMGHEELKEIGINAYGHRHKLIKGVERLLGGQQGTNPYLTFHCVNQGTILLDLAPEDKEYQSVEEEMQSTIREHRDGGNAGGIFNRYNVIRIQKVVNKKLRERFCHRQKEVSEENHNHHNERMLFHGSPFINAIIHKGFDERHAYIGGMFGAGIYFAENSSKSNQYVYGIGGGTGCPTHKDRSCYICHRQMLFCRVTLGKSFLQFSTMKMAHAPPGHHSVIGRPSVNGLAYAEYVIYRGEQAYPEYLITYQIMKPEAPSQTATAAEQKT

Q: Which binding (TFEB-EGFP [1]) does the source give for TCF1 (from UniProt P36402 1-384) here?
A: binds

Q: Myc-Axin1 (from UniProt O15169 1-862) was tested. Which binding (Flag-TFEB) did it give?
A: binds

Q: What about the binding (TFEB-EGFP [1]) of the same molecule?
A: binds

Q: And the binding (TFEB V65D/G67V/E68A-EGFP)?
A: binds

Q: LEF1 (from UniProt Q9UJU2 1-399) was tested. Which binding (TFEB-EGFP [1]) did it give?
A: binds

Q: “Flag-TNKS1 (from UniProt O95271 1-1327) (enzyme)” was tested. Which binding (TFEB-EGFP [1]) did it give?
A: binds

B1: TCF3 (protein, UniProt Q9HCS4 1-588)
chain: MPQLGGGGGGGGGGSGGGGGSSAGAAGGGDDLGANDELIPFQDEGGEEQEPSSDSASAQRDLDEVKSSLVNESENQSSSSDSEAERRPQPVRDTFQKPRDYFAEVRRPQDSAFFKGPPYPGYPFLMIPDLSSPYLSNGPLSPGGARTYLQMKWPLLDVPSSATVKDTRSPSPAHLSNKVPVVQHPHHMHPLTPLITYSNDHFSPGSPPTHLSPEIDPKTGIPRPPHPSELSPYYPLSPGAVGQIPHPLGWLVPQQGQPMYSLPPGGFRHPYPALAMNASMSSLVSSRFSPHMVAPAHPGLPTSGIPHPAIVSPIVKQEPAPPSLSPAVSVKSPVTVKKEEEKKPHVKKPLNAFMLYMKEMRAKVVAECTLKESAAINQILGRKWHNLSREEQAKYYELARKERQLHSQLYPTWSARDNYGKKKKRKREKQLSQTQSQQQVQEAEGALASKSKKPCVQYLPPEKPCDSPASSHGSMLDSPATPSAALASPAAPAATHSEQAQPLSLTTKPETRAQLALHSAAFLSAKAAASSSGQMGSQPPLLSRPLPLGSMPTALLASPPSFPATLHAHQALPVLQAQPLSLVTKSAH
Q: B1 was tested. Which binding (TFEB-EGFP [2]) did it give?
A: no binding
